Laboratory results as given in patent US20040181033A1 (Amgen, published 2004).
Read-outs that look alike come from different tables or passages of the source.

T1: recombinant mature myostatin (human, UniProt O14793 267-375)
T1 sequence (looked up): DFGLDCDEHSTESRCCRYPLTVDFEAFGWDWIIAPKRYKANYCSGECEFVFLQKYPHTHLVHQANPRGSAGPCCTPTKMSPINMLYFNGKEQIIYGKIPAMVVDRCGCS


How the values were obtained:
[1] = target: T1, recombinant mature myostatin; assay: cell-based or functional assay
[2] = target: T1, recombinant mature myostatin; assay: cell-based or functional assay; remark: listed apart in the source

Binder	IC50 (C2C12 pMARE-luc) [1] [nM]	IC50 (C2C12 pMARE-luc) [2] [nM]
Myostatin-TN12-34 (Fc fusion) MAHWCEQGPWRYGNICMAYGGGGG[letters of human IgG1 Fc left out]GGGGGAHWCEQGPWRYGNICMAY	30	
Myostatin-Linear-20 (Fc fusion) MYREMSMLEGLLDVLERLQHYGGGGG[letters of human IgG1 Fc left out]	11	
mL2-7 (Fc fusion) MGAQRMEMLESLFELLKEIVPMSKAGLEGGGGG[letters of human IgG1 Fc left out]	90.2	
mL2-9 (Fc fusion) MGAQQMELLDSLFELLKEIVPKSQPALEGGGGG[letters of human IgG1 Fc left out]	106	
Myostatin-2xTN8-19 kc (Fc fusion) [letters of human IgG1 Fc left out]GSGSATGGSGSTASSGSGSATGQGHCTRWPWMCPPYGSGSATGGSGSTASSGSGSATGQGHCTRWPWMCPPY		~9
